Data as given in the RNAGym collection of RNA variant scans (doi:10.1073/pnas.2313332121).
This sample is rich in variants without activity.

B1: TPR 5TU (parent)
chain: GGAUCUUCUCGAUCUAACAAAAAAGACAAAUCUGCCACAAAGCUUGAGAGCAUCUUCGGAUGCAGAGGCGGCAGCCUUCGGUGGCGCGAUAGCGCCAACGUUCUCAACUAUGACACGCAAAACGCGUGCUCCGUUGAAUGGAGUUUAUCAUG

Variants of: B1
Experiment: polymerase ribozyme fitness, log enrichment relative to wild type (log ratio); higher = more active; in vitro selection for triplet polymerase activity
Outline: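 To select mutant libraries of each subunit of a heterodimeric triplet polymerase ribozyme, built by PCR and transcribed, each was annealed with a biotinylated primer, partner subunit and triplets, then incubated frozen at −7 °C. Extended constructs were gel-excised, captured on streptavidin beads and amplified by RT-PCR, in one round carried out in triplicate. Illumina sequencing of input and output libraries kept genotypes with ≥10 input reads and ≥1 read per output. Fitness is the base-2 logarithm of genotype enrichment relative to wild-type enrichment, from inverse-variance-weighted replicate averages.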

| Variant | polymerase ribozyme fitness (log ratio) |
| --- | --- |
| A30G U44C G88C C105A | ≤ -4.2 |
| A30U A40C A60C G83C C95A | ≤ -4.2 |
| C32G A107U U139C | ≤ -4.2 |
| C32U G81U A107U C125U | ≤ -4.2 |
| A30U A91U | ≤ -4.2 |
| U31A G81A G92A A110U C149G | ≤ -4.2 |
| C32U G59A G74U G83C G86A C87U | ≤ -4.2 |
| A30U G86A | -3.95 |
| U33C C35G C36G G50C G94U | ≤ -4.2 |
| U31C C103G C132A | ≤ -4.2 |
| U33C G48C U56A C87G A97U C108U G136A A150C | ≤ -4.2 |
| U31C U101C G124A | 1.05 |
| U31C A40U U44A A47G C63A | ≤ -4.2 |
| U31C G34C C69U U82G C95A U104A G126A U146C | ≤ -4.2 |
| A30U G34U C85A G136U | ≤ -4.2 |
| U31A C93A A115C | -1.71 |
| U31C C54U G71U C96U | -3.79 |
| C32G U61A A66C G74A C76U A115G | ≤ -4.2 |
| U31C A41G U53A U55A | -0.0378 |
| A30U A37C G50C A91G A150G | ≤ -4.2 |
| U33A C72U G86U | ≤ -4.2 |

| Variant | polymerase ribozyme fitness (log ratio) |
| --- | --- |
| U31C A52G C54A A106G C129G U144G A147U | ≤ -4.2 |
| C32U G81C G92U U134A G136C | ≤ -4.2 |
| C32G A40G G50A A52C C75G C93U A121G | ≤ -4.2 |
| C32A A47G C54A C93A U135A | ≤ -4.2 |
| C32U C36U U45A A60U G88A G126A | ≤ -4.2 |
| U33G A52C G92C U139C | ≤ -4.2 |
| U31A A39U C93G C95U C99U A107G A113U C132U U135C A138G | ≤ -4.2 |
| A30U U61G G68A C93U C103G A147C | ≤ -4.2 |
| C32G U56A C87A G92A C96U C132A G141U A150U | ≤ -4.2 |
| U33G G50A C93G G128A | ≤ -4.2 |
| A30U G68U C76A A91C | ≤ -4.2 |
| U33G A47C G81C G84U A89G | ≤ -4.2 |
| C32U A66U G68C G94U C149A | ≤ -4.2 |
| U31G C99U C116U A137G | -1.84 |
| U31G G48C C54G U61A G86A G92A A115U G117U C118A | ≤ -4.2 |
| U33A U148A | ≤ -4.2 |
| U33G A73G | -0.513 |
| C32A G88U C93A C149A | ≤ -4.2 |
| C32U C93A | -4.11 |
| U31A C85A | -0.724 |
| C32A G140U | ≤ -4.2 |

| Variant | polymerase ribozyme fitness (log ratio) |
| --- | --- |
| U31A C36U C43A C63A A91U U104G | ≤ -4.2 |
| C32G G34A U55A C96G C125U A138G | ≤ -4.2 |
| C32A C43U U53A U77G U151G | ≤ -4.2 |
| U31G A89C C95G C99A | ≤ -4.2 |
| U31C C36A C96U A150G | ≤ -4.2 |
| A30U A52U C93A | ≤ -4.2 |
| A30U G81C A107G | ≤ -4.2 |
| U33G C69U C76A G92C | ≤ -4.2 |
| U33G C54G C93A U104G C116U G141U | ≤ -4.2 |
| A30U A66C G68A C87A | ≤ -4.2 |
| U31G A52C C54A | ≤ -4.2 |
| U31C U53A G74C G83A A91C C149G | ≤ -4.2 |
| C32U A39U A73U G94U G140A A150G | ≤ -4.2 |
| U33C A40C G68U C95A U102C C132G | -3.48 |
| U31G C51A U90G A97U | ≤ -4.2 |
| C32G G80A G92U C95A U102C G124A | ≤ -4.2 |
| U33C C35G | ≤ -4.2 |
| U31G G68C C75A | ≤ -4.2 |
| U33C C43U A52G C75G A91U C131G | ≤ -4.2 |
| C32U A40C U78A C79A C87G | ≤ -4.2 |
| U31G G50A C87A U135A | ≤ -4.2 |

| Variant | polymerase ribozyme fitness (log ratio) |
| --- | --- |
| C32G G50C C79A G86U G143U | ≤ -4.2 |
| U31G G65A C96U G112C A115G U144A | ≤ -4.2 |
| U33G A41G C93A C99A G133U | ≤ -4.2 |
| C32U C35G A89G C105G A110U | ≤ -4.2 |
| A30G U45A G68U U77C C79G C105G | ≤ -4.2 |
| C32G G42C G88C A106C C123U U144A | ≤ -4.2 |
| C32G G50A C51A U56A C57U A97U G126U U148A | ≤ -4.2 |
| C32U G46A A60U G83C C96A G141A | ≤ -4.2 |
| C32U C96G A142U | -3.35 |
| C32G U90A | ≤ -4.2 |
| U31A A91C C116A | -3.88 |
| U31G G92C U109A G143C | ≤ -4.2 |
| A30G U56A G80U C96A C105U G143U | ≤ -4.2 |
| C32A U33C G50C G59A C72A G83C C103A | ≤ -4.2 |
| U31A C57U C87U A89G G117A | -3.86 |
| C32G A47C G74C C116U C132A A138U | ≤ -4.2 |
| C32G A73G C85U A138U G141A | ≤ -4.2 |
| U31G A47C U56A C76U U90G C95A U101G | ≤ -4.2 |
| A30U C76A | -3.82 |
| U31G A37C U82A G84C C87A C99G | ≤ -4.2 |
